# Assay results published in the BET-seq Pho4 binding data (Le et al. 2018).
# The other results are listed elsewhere or left out. Values were computed here from the reads of four pooled replicates and scatter widely.
# Biological target: T1, Pho4 (S. cerevisiae) (UniProt P07270)
# T1 sequence: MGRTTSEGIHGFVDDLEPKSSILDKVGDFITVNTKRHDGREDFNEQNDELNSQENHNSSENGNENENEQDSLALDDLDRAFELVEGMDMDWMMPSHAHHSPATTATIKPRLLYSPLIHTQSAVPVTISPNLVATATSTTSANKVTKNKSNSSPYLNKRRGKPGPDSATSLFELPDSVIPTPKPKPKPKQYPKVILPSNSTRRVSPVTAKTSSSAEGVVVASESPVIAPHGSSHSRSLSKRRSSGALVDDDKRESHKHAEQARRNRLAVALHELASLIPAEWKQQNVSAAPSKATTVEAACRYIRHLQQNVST
# Assay: relative binding free energy (BET-seq); higher = weaker binding
# Conditions: reference: library average
row,Sequence,relative binding free energy
1,ATGTGCACGTGGAGAA,-0.08 kcal/mol
2,TGGTTCACGTGGTCTA,0.22 kcal/mol
3,TATGCCACGTGGTGTC,-0.14 kcal/mol
4,ATGAACACGTGGGGTA,-0.2 kcal/mol
5,CTCGACACGTGGGGGA,-0.11 kcal/mol
6,TTTTGCACGTGCGAGA,0.16 kcal/mol
7,TGGTTCACGTGTGGCC,0.29 kcal/mol
8,GGGTACACGTGAGTAA,0.27 kcal/mol
9,GTTTTCACGTGTGGCG,0.22 kcal/mol
10,GCTGGCACGTGGGTCT,-0.21 kcal/mol
11,TAGGGCACGTGTTCAG,-0.16 kcal/mol
12,TAGGTCACGTGGGACA,-0.05 kcal/mol
13,GTTTTCACGTGTGATG,0.44 kcal/mol
14,AGGTGCACGTGTTTGG,0.06 kcal/mol
15,TTGAGCACGTGATGGC,0.13 kcal/mol
16,TTATACACGTGGACGG,0.08 kcal/mol
17,ATATGCACGTGCAGTG,-0.17 kcal/mol
18,TTGCGCACGTGGCGGA,-0.11 kcal/mol
19,AGGGCCACGTGTATTG,0.06 kcal/mol
20,TCTGGCACGTGGTTTA,-0.13 kcal/mol
21,TCGTTCACGTGTTTTT,0.28 kcal/mol
22,ATTGTCACGTGCGGCT,0.11 kcal/mol
23,TGTGGCACGTGGCAAT,-0.25 kcal/mol

row,Sequence,relative binding free energy
1,TGGCACACGTGCTGGG,0.02 kcal/mol
2,AACTGCACGTGGCGGT,0.17 kcal/mol
3,AGTGACACGTGAGGCG,0.17 kcal/mol
4,GTAGGCACGTGAGTGC,0.27 kcal/mol
5,TTTGGCACGTGATATC,0.05 kcal/mol
6,TACGGCACGTGGTGGA,-0.16 kcal/mol
7,AATTTCACGTGGCTGG,0.34 kcal/mol
8,TATTGCACGTGAGCTG,0.05 kcal/mol
9,ATTGACACGTGGCGTG,0 kcal/mol
10,GGGAACACGTGGGTGT,-0.09 kcal/mol
11,GTGTGCACGTGGTTTT,0.06 kcal/mol
12,TTGGGCACGTGTCAAT,-0.18 kcal/mol
13,TTAGTCACGTGTACAG,0.13 kcal/mol
14,TTGCGCACGTGGTTAT,-0.24 kcal/mol
15,GTAAGCACGTGGCGGT,-0.15 kcal/mol
16,AGGATCACGTGGTTCA,0.15 kcal/mol
17,GGCTGCACGTGAAGGG,0.28 kcal/mol
18,GGCGGCACGTGGGCTA,-0.22 kcal/mol
19,GTGATCACGTGGCTGT,0 kcal/mol
20,TATGGCACGTGGAAGG,-0.05 kcal/mol
21,GGCGGCACGTGGCGCG,-0.15 kcal/mol
22,GTAAGCACGTGTGGTG,-0.08 kcal/mol
23,TGGTTCACGTGTGCCG,0.31 kcal/mol

row,Sequence,relative binding free energy
1,TTTTACACGTGATAAA,0.22 kcal/mol
2,TGGTTCACGTGCGAGG,0.31 kcal/mol
3,ATTATCACGTGCTTTT,0.15 kcal/mol
4,CGTTACACGTGTAAGG,0.2 kcal/mol
5,TGTCTCACGTGTAGGG,0.14 kcal/mol
6,GGAGGCACGTGGATAA,0.01 kcal/mol
7,GTTAGCACGTGGGGTC,-0.1 kcal/mol
8,TTACGCACGTGTTTAA,0.04 kcal/mol
9,GCGGCCACGTGGGTTG,-0.19 kcal/mol
10,AGGATCACGTGGGGAT,-0.01 kcal/mol
11,TGTCTCACGTGTCGAT,0.35 kcal/mol
12,GTTGCCACGTGGAGGC,-0.01 kcal/mol
13,TTCATCACGTGGTGGC,0.14 kcal/mol
14,CGGGGCACGTGGCGAT,0.02 kcal/mol
15,GAGGGCACGTGAGGCA,0.12 kcal/mol
16,CGGAGCACGTGATGGG,-0.07 kcal/mol
17,GTAATCACGTGTTAAG,0.21 kcal/mol
18,GGCGCCACGTGTTAGG,0.05 kcal/mol
19,TAATTCACGTGGGTCT,0.16 kcal/mol
20,TATGTCACGTGCTTGG,0.14 kcal/mol
21,TTAATCACGTGTGTGT,0.12 kcal/mol
22,AAATTCACGTGTGGCT,0.17 kcal/mol
23,TTTAACACGTGTTGAT,0.02 kcal/mol

row,Sequence,relative binding free energy
1,TGTGTCACGTGACGTA,0.17 kcal/mol
2,ATGGGCACGTGAGATG,0.14 kcal/mol
3,GGAATCACGTGGGAGG,0.15 kcal/mol
4,GGGAGCACGTGATGCG,0.05 kcal/mol
5,AATGGCACGTGAGGAA,0.03 kcal/mol
6,TGGCCCACGTGGTGTA,-0.18 kcal/mol
7,TTTGTCACGTGATGCG,0.11 kcal/mol
8,GTTGGCACGTGCAGGG,-0.05 kcal/mol
9,TTCGGCACGTGTAGTA,0.03 kcal/mol
10,AGGCTCACGTGGGGGA,0.06 kcal/mol
11,GGGGGCACGTGGAGAC,-0.03 kcal/mol
12,AATTGCACGTGATATT,0.01 kcal/mol
13,AGGGGCACGTGCAGAT,-0.14 kcal/mol
14,TTTACCACGTGTGTGG,0.09 kcal/mol
15,AGGATCACGTGTTAGG,0.17 kcal/mol
16,GTTCCCACGTGTGGGG,-0.03 kcal/mol
17,TGGTACACGTGGTGGG,0.12 kcal/mol
18,TCTAGCACGTGATGGT,0.06 kcal/mol
19,TGTTCCACGTGGGTTC,-0.11 kcal/mol
20,AATAGCACGTGAAGTA,0.34 kcal/mol
21,AAAGTCACGTGTATGG,0.15 kcal/mol
22,ATAGACACGTGGAAGG,0.02 kcal/mol
23,TGTTACACGTGGTCGA,0.14 kcal/mol

row,Sequence,relative binding free energy
1,GTTTACACGTGTTAAG,0.13 kcal/mol
2,GGCGTCACGTGTTTAT,0.24 kcal/mol
3,GTATTCACGTGAGTAA,0.45 kcal/mol
4,CCTGGCACGTGGGGTA,-0.27 kcal/mol
5,CGGTGCACGTGATTTG,0.11 kcal/mol
6,GTTTGCACGTGGTCCT,-0.07 kcal/mol
7,AGACACACGTGGGGTG,-0.28 kcal/mol
8,CATCGCACGTGTGTGG,-0.01 kcal/mol
9,TTACTCACGTGCGGGG,0.15 kcal/mol
10,ACGGGCACGTGTCTGG,0 kcal/mol
11,ATAGTCACGTGTTGTC,0.02 kcal/mol
12,CTGGTCACGTGTGAGA,0.18 kcal/mol
13,GTTTGCACGTGGCGCG,-0.08 kcal/mol
14,CTGGACACGTGCGTGT,0.05 kcal/mol
15,GCTGGCACGTGATCGG,-0.1 kcal/mol
16,TGTATCACGTGGCGTC,0.04 kcal/mol
17,TGTAGCACGTGGTAGT,-0.14 kcal/mol
18,AGGGCCACGTGGTATA,-0.16 kcal/mol
19,TTGTGCACGTGTCAGA,-0.03 kcal/mol
20,TTATGCACGTGAAGGC,0.31 kcal/mol
21,ATTATCACGTGTAGAG,0.24 kcal/mol
22,TCGGGCACGTGTCGTG,-0.21 kcal/mol
23,GACGGCACGTGGTTTT,0.01 kcal/mol
